Measurements published in PubChem BioAssay AID1466 (National Center for Advancing Translational Sciences (NCATS), 2008).
The campaign covered roughly 200,000 compounds. About 10 (0.005%) were called active. The shares of active, inactive and inconclusive entries below differ from those in the screen. Calls come from the whole dose curve; as a rule, active = well fitted inhibition curve with a large enough effect; inconclusive = small, poorly fitted or top-dose-only effect, or effect the other way, or another doubt; inactive = no such curve, though single readings can be large or run the other way. Potencies of inconclusive entries are left out as doubtful fits.

Each compound was assayed against Lysosomal alpha-glucosidase (Homo sapiens) (UniProt P10253) (assay: qHTS Assay for Inhibitors of Human alpha-Glucosidase as a Potential Chaperone Treatment of Pompe Disease). Conditions: purified human GAA, 4-MU-alpha-glucoside fluorescence; activity change, negative = inhibition: at 76.9 µM (top of the series) unless noted.
Outline: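 qHTS format, compound range up to 77 uM. Human lysosomal enzyme at 4 nM, 400 uM 4-MU glucoside substrate, pH 5.0, 20 min room temperature; fluorescence after alkaline stop gives activity normalized to controls.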
Potency is the fitted concentration of half-maximal effect; tags give direction and shape of the fitted curve.
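Throughout, for activity change, negative = inhibition: plate controls were uninhibited enzyme wells for no effect and no-enzyme background for full effect.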

Row | Structure (SMILES) | Potency | activity change, negative = inhibition
1 | CC(C)(C)c1ccc(OCC(=O)N/N=C/c2ccsc2)cc1 | inconclusive [inhibitor, full curve, poor fit] | 
2 | O=C(c1cc(Cl)cc(Cl)c1)N1CCC(=O)N(C(COCc2ccccc2)Cc2ccccc2)CC1 (stereo not given) | inconclusive [inhibitor, single point] | 
3 | CCc1cccc(CC)c1-n1c(SCn2nnc3ccccc3c2=O)nnc1-c1cccnc1 | inconclusive [inhibitor, full curve, poor fit] | 
4 | CC(C)Nc1nc(NC(C)C)nc(N(C#N)C(C)C(=O)N(C)C)n1 (stereo not given) |  | inconclusive: 22% [activator]
5 | CCCCc1cc(=O)oc2c(CN(CC)CC)c(O)c(Cl)cc12 | inconclusive [activator, partial curve] | 
6 | CCCCCCc1cc2cc(C(N)=O)c(=N)oc2cc1O | inconclusive [activator, partial curve] | 
7 | C/C(=N/Oc1nc(C)cc(C)n1)c1ccc(Cl)cc1Cl | inconclusive [inhibitor, full curve] | 
8 | O=[N+]([O-])c1ccc(N2CCNCC2)cc1NCc1cccnc1 | inconclusive [inhibitor, single point] | 
9 | Cc1ccc(OCCN2CCNCC2)c([N+](=O)[O-])c1 | inconclusive [inhibitor, single point] | 
10 | CCOC(=O)C1(C)NC(c2ccco2)C2C(=O)N(CC)C(=O)C21 (stereo not given) | inconclusive [inhibitor, single point] | 
11 | CCOC(=O)C1(Cc2ccccc2C)CCCN(C(=O)CCn2nccc2C)C1 (stereo not given) |  | inconclusive: 22.8% [activator]
12 | CCOC(=O)CC1C(=O)NCCN1S(=O)(=O)c1ccc(Cl)c(Cl)c1 (stereo not given) | inconclusive [inhibitor, full curve, poor fit] | 
13 | CCCSc1cc(NCCOC(C)=O)c([N+](=O)[O-])c2nonc12 | inactive | 
14 | Cc1cc(C)c(S(=O)(=O)NCCn2ccc3ccccc32)c(C)c1 | inconclusive [inhibitor, full curve] | 
15 | O=C(c1cnn2c(C(F)(F)F)cc(-c3ccc4c(c3)OCO4)nc12)N1CCCCC1 | inconclusive [inhibitor, single point] | 
16 | Cc1ccc(-n2cnc3scc(-c4cccs4)c3c2=O)cc1 | inconclusive [inhibitor, single point] | 
17 | Cc1nc2c(cnn2-c2ccccc2Cl)c(=O)n1-c1ccc(N2CCC(C)CC2)cc1 | inconclusive [inhibitor, full curve] | 
18 | COc1ccc2c(CN3CCN(S(=O)(=O)c4cccs4)CC3)cc(=O)oc2c1 | inconclusive [inhibitor, partial curve, poor fit] | 
19 | O=C(CN1CCCCC1)Nc1ccc(NC(=O)c2ccccc2Cl)cc1Cl | inconclusive [inhibitor, single point] | 
20 | CC1(C)CC(C(CC(=O)N2CCCC2)Cc2ccccc2)CCO1 (stereo not given) | inconclusive [inhibitor, partial curve] | 

Row | Structure (SMILES) | Potency | activity change, negative = inhibition
21 | CC12CCC(c3c1nc1ccccc1[n+]3[O-])C2(C)C (stereo not given) | inconclusive [inhibitor, single point] | 
22 | CCNC(=S)Nc1ccc(N(c2ccccc2)C(C)C)cc1 |  | inconclusive: -17.8% [inhibitor]
23 | Cc1ccc(-c2nnc(-n3nnc4ccccc43)c3ccccc23)cc1 | inconclusive [inhibitor, single point] | 
24 | O=C(/C=C(\c1ccccc1)n1cncn1)c1ccccc1 | inconclusive [inhibitor, single point] | 
25 | CC(C)N(Cc1ccccc1)C(=S)Nc1cccnc1 | inconclusive [activator, partial curve] | 
26 | CC(=O)C1C(=O)C=C(c2ccco2)CC1c1ccccc1 (stereo not given) |  | inconclusive: -15.7% [inhibitor]
27 | Cc1ccc(CN2CCN(CC(C)C)C(CCO)C2)s1 (stereo not given) |  | inconclusive: 17.9% [activator]
28 | O=c1c(/C=N/Nc2ccccc2)c(Sc2nnnn2-c2ccccc2)nc2ccccn12 | inconclusive [inhibitor, single point] | 
29 | COc1cc(NC(=O)c2c(Cl)cnn2C)c(OC)cc1Cl |  | inconclusive: 22% [activator]
30 | COc1ccc(N2C(=O)NC(NC(=O)c3ccncc3)(C(F)(F)F)C2=O)cc1 (stereo not given) | inconclusive [inhibitor, full curve, poor fit] | 
31 | CC(C)(O)C#Cc1ccc(C(=O)N2CCC(C(N)=O)(N3CCCCC3)CC2)cc1 |  | inconclusive: -15.4% [inhibitor]
32 | NC(=O)c1ccc(CN2CCC(Cc3ccccc3)CC2)cc1 | inconclusive [inhibitor, partial curve, poor fit] | 
33 | O=C(O)C1CCN(C(=O)COc2ccc3c4c(c(=O)oc3c2)CCC4)CC1 | inconclusive [activator, single point] | 
34 | O=C(CNC(=O)c1ccncc1)N/N=C/c1ccc(O)cc1O | inconclusive [inhibitor, partial curve] | 
35 | COC(=O)CCn1nnc(-c2ccc(C(C)C)cc2)n1 | inconclusive [inhibitor, full curve, poor fit] | 
36 | Cc1sc2nc(SCC(=O)N3CCN(CCO)CC3)n(-c3ccccc3)c(=O)c2c1C | inconclusive [inhibitor, full curve, poor fit] | 
37 | Cc1cc(C)c2c(-n3cccc3)c(C(=O)NNS(=O)(=O)c3ccccc3)sc2n1 | inactive | 
38 | N/C(Cc1ccc([N+](=O)[O-])cc1)=N\OC(=O)COc1cccc2ccccc12 | inconclusive [inhibitor, partial curve, poor fit] | 
39 | CCCCOc1ccc(Br)cc1/C(C)=N/NC1=NCCN1 | inconclusive [inhibitor, single point] | 
40 | COc1ccc(Cn2c(=O)[nH]c3cc(C(=O)NCCCN4CCCC4=O)ccc3c2=O)cc1 | inconclusive [activator, partial curve] | 
